Results as given in the supplement of paper PMC10126150.
Sequences with one replicate were seen in a single cluster, so their values are uncertain.

System: ATP
Assay: switch fluorescence ratio, 500 uM ATP over buffer (Cy3 cluster intensity, sum of 5 cycles each) (fold (ratio)); higher = stronger signal-on switching upon ATP binding; sequences stand for … in TCGTCGGCAGCGTCAGATGTGTATAAGAGACAGTTTTTTTTTTTTTTTTTTTTTTTTT…TC
Conditions: aptamer strand: ATP DNA aptamer (quencher-CACCTGGGGGAGTATTGCGGAGGAAGG + anchor), 100 nM annealed; ATP concentration: 500 uM; one replicate
Outline: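 The quencher-labelled ATP aptamer, at 100 nM, was annealed to Cy3-labelled switching-strand clusters on a modified Illumina MiSeq flow-cell. The clusters were imaged in selection buffer, then after 15 min with 500 uM ATP at 22 °C, and this buffer/ATP cycle ran five times with NaOH stripping and re-annealing between runs. Per-cluster fluorescence ratios, summed target-cycle over summed buffer-cycle Cy3 intensity, were averaged per switch-domain sequence. Clusters outside 100-1000 RFU were excluded.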
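Note: ATP exposure 15 min at 22 °C before imaging.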

Sequence	switch fluorescence ratio
AAAAAAAGAG	1.02
AAAAAATA	0.995
AAAAAGCGAG	1.01
AAAAAGCGGG	0.948
AAAAAGGAA	1.03
AAAAAGGCTG	0.899
AAAAAGTAAC	1.03
AAAAAGTTCG	1.09
AAAAATAGTC	1.04
AAAAATTATC	1.02
AAAAATTCGG	0.92
AAAAATTTCT	0.969
AAAACAGCTA	1.03
AAAACCTAGT	1.05
AAAACGAGCC	1.07
AAAACGAGCG	1
AAAACGGTAT	1.01
AAAACGGTGG	0.99
AAAACGTGAG	0.982
AAAACTCGTT	0.916
AAAACTGAAG	1.03
AAAAGAAGAT	0.965
AAAAGACAC	0.958
AAAAGACCTT	1.27
AAAAGAGAGT	0.99
AAAAGAGCTC	1.01

Sequence	switch fluorescence ratio
AAAAGCCTTT	1.04
AAAAGCGCG	1.1
AAAAGGATCC	1.06
AAAAGGCCAC	0.982
AAAAGGCCCG	1
AAAAGGGG	1.06
AAAATAAGTG	0.97
AAAATACT	1.43
AAAATAGT	0.991
AAAATCGTTC	1.02
AAAATGAAGC	0.98
AAAATGAGTA	0.967
AAAATGCGC	1
AAAATGGCCG	0.984
AAAATTGCCC	0.963
AAAATTTTCT	1.03
AAACAACGTA	1.05
AAACAAGATC	0.987
AAACAATGCG	1
AAACAATTCG	1.01
AAACACTTGT	1.02
AAACAGAAGG	1.01
AAACATAGTT	1.02
AAACATCCTC	1.27
AAACATCTTC	0.991
AAACATGAAG	0.993

Sequence	switch fluorescence ratio
AAACATGAGG	1.04
AAACCAATTC	1.11
AAACCAGAGT	0.996
AAACCAGTGG	1.03
AAACCCACCT	1.31
AAACGAACT	1.2
AAACGACGCC	1.14
AAACGATCCC	0.942
AAACGCAGGC	1.58
AAACGCCAAA	1.04
AAACGCTGTG	1.04
AAACGGCCGG	1.01
AAACGGCGCA	0.963
AAACGGCTTG	0.933
AAACGGGAAT	1.02
AAACGGGTGG	1.05
AAACGGTAGT	1.03
AAACGTCGC	0.987
AAACGTGTAT	0.975
AAACTACTAA	1.11
AAACTATTTG	0.995
AAACTCGCCG	0.989
AAACTCTCTA	0.991
AAACTGGGAA	0.992
AAACTTAGGC	0.959
AAACTTTTGG	0.996

Sequence	switch fluorescence ratio
AAAGAACGG	1.04
AAAGACAAAA	0.942
AAAGACACGG	1.09
AAAGACAGCT	1
AAAGACCCTT	1.15
AAAGATCTT	0.996
AAAGATGCGT	0.966
AAAGATTCAG	1.02
AAAGATTTCC	1.05
AAAGCCTAGG	1.05
AAAGCCTCTA	0.987
AAAGCCTTTT	1.24
AAAGCGAAA	0.942
AAAGCGCTAG	0.987
AAAGCGGCG	0.991
AAAGCGGCGG	0.972
AAAGCTAGCG	0.945
AAAGCTCCGT	1.07
AAAGCTGTAT	0.974
AAAGGACTAT	0.958
AAAGGAGGTG	1.1
AAAGGATGGA	0.948
AAAGGCAAGC	1.15
AAAGGCATTT	1.34
AAAGGCCAA	0.99
AAAGGCCACG	1.05

Sequence	switch fluorescence ratio
AAAGGCCGTT	1
AAAGGCTGTT	1.06
AAAGGGCCAC	0.973
AAAGGGCCCG	1.13
AAAGGGTTT	1
AAAGGTAAG	1.01
AAAGGTAGCT	0.998
AAAGGTAGGT	0.997
AAAGGTATAT	0.974
AAAGGTCGAA	0.994
AAAGGTCGTC	1.01
AAAGGTCTC	0.986
AAAGGTGATT	0.956
AAAGGTTAA	1.03
AAAGGTTTG	0.975
AAAGTCTCAA	1.01
AAAGTCTGTG	1.04
AAAGTGAGTT	1.01
AAAGTGCGGG	0.982
AAAGTTATCA	0.976
AAAGTTTTCT	0.957
AAATAAATCG	0.984
AAATAAGGCA	0.954
AAATAAGGG	1.04
AAATAAGTGG	0.969
AAATAATCTC	1.02

Sequence	switch fluorescence ratio
AAATACAAGC	1.01
AAATAGACTC	1.05
AAATCAAGGC	0.973
AAATCACCGA	0.994
AAATCATATC	1.02
AAATCATGA	0.996
AAATCATGCC	1.04
AAATCCTGGT	1
AAATCGAAAT	3.67
AAATCGCCTA	1.01
AAATCGGGTG	1.16
AAATCTCTCA	0.996
AAATGAAAGG	1
AAATGAATA	1.26
AAATGCATTT	1.03
AAATGCGATC	1.12
AAATGGGCGC	1.02
AAATTAAGGT	0.948
AAATTAATGC	1.05
AAATTACTTT	1.17
AAATTAGTCA	1
AAATTATGTA	0.948
AAATTCCCGC	1.16
AAATTCTTGG	1
AAATTGAATG	1.01
AAATTGTCAC	0.997

Sequence	switch fluorescence ratio
AAATTTCTCC	1.05
AACAAAGGTG	1.53
AACAAATGAG	1.02
AACAAGGGTA	0.958
AACACAAGAT	1.06
AACACCCCCA	1.1
AACACCGATT	0.995
AACACCGGTA	0.992
AACACGTAGA	1.1
AACACTCGTT	0.966
AACAGAGAG	0.961
AACAGCTATA	1.07
AACAGGACTT	1.12
AACAGGCAGC	1
AACAGGCCGG	1.05
AACAGGTTAT	0.964
AACATCTAAT	0.977
AACATGCAGT	1.06
AACATGGTAG	0.989
AACATGTTCG	0.916
AACATTAAGA	1.03
AACATTTTT	1.3
AACCAAAGCC	1.1
AACCAACGA	1.52
AACCACTAAC	1.23
AACCACTGTG	1.04

Sequence	switch fluorescence ratio
AACCAGCA	1.06
AACCAGGCTG	1.07
AACCCAGATG	2.55
AACCCCCTAA	1.11
AACCCGCGTA	1.16
AACCCTACAA	1.05
AACCCTCAGT	1.03
AACCGACGCT	3.97
AACCGACTTT	1.12
AACCGAGCTG	1.38
AACCGAGGAC	1.07
AACCGGCAAC	1.45
AACCGGGACT	1.1
AACCGGGGAT	1
AACCGTAGGG	0.996
AACCGTCCCG	1.55
AACCGTCTT	1.01
AACCTCGTTA	1.03
AACCTCTACG	1.45
